# Laboratory results from article PMC6919601, “Identification of Plasmodium dipeptidyl aminopeptidase allosteric inhibitors by high throughput screening” (PLoS ONE, 2019).
# Where “and” joins values, the source holds several entries; their conditions need not be identical. Identical values can stand only once. Among all 110,000 compounds or so, about 230 (0.21%) showed an effect of 50% or more. Some of the results follow.
# Biological target: DPAP1 (Plasmodium falciparum, UniProt Q8IIJ9)
# Assay: primary screen, percent inhibition; read by cleavage of a fluorogenic dipeptide substrate; higher = more effect of the substance
# Design: species or system P. falciparum D10 trophozoite lysates; single well
# 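Note: 30 min substrate incubation versus DMSO and 10 µM JCP410 controls.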
# DPAP1, sequence (Q8IIJ9 whole entry, looked up): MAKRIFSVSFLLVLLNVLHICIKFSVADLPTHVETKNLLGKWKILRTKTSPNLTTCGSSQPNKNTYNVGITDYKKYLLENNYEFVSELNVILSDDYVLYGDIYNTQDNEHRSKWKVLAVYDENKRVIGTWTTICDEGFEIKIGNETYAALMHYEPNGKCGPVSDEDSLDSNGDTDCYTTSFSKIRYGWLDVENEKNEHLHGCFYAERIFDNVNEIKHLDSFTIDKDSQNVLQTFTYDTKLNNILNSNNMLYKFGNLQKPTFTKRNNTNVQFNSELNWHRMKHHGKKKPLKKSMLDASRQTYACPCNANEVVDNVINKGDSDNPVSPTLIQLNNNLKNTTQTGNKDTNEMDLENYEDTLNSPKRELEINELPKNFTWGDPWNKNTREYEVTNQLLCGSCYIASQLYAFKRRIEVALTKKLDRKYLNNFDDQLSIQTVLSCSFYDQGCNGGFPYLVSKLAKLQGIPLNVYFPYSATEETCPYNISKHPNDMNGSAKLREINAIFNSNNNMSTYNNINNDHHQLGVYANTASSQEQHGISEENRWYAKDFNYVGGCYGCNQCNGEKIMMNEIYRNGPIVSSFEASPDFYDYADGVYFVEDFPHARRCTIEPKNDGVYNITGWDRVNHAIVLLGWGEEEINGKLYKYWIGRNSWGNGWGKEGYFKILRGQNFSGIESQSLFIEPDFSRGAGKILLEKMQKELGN
row,Structure (SMILES),% Inhibition @ 10 uM
1,Cc1ccc(CNC(=O)c2cc(O)nc3ccc(Br)cc23)cc1,4.81%
2,C=C(CC)CC(NC(=O)OCc1ccccc1)C(=O)NCC#N (stereo not shown),-1.41%
3,COc1cc(/C=C2/N=C(c3ccc(-c4ccccc4)cc3)OC2=O)cc(OC)c1OC,0.607%
4,COCCC/N=C/C1=C(O)CC(c2ccccc2)CC1=O (stereo not shown),-2.8%
5,NS(=O)(=O)c1ccc(CCNC(=O)C2c3ccccc3Oc3ccccc32)cc1,-3.41%
6,COc1cc(C2c3c(-c4ccccc4O)n[nH]c3C(=O)N2CCO)ccc1O (stereo not shown),-1.35%
7,COc1ccccc1/C=C/c1nc(C#N)c(NCc2ccco2)o1,-2.57%
8,CCN(CC)S(=O)(=O)c1ccc(NC(=O)c2ccccc2Oc2ccccc2)cc1,-7.25%
9,Cc1cc(C)n2nc(CNS(=O)(=O)c3cccc(C#N)c3)nc2n1,1.22%
10,CC(=O)Nc1ccc(NC(=O)c2ccc(-c3ccc(Br)cc3)o2)cc1,-1.77%
11,CS(=O)(=O)N1N=C(c2ccc(Cl)cc2)CC1c1ccc(Cl)cc1 (stereo not shown),-6.37%
12,CCNCC(O)COCC(O)CNCC (stereo not shown),-1.74%
13,CCN(CC)CCN1CCn2c3c(c4cc(C)ccc42)CCCC31 (stereo not shown),8.68% and 0.266%
14,COc1ccc2c(C)c(CC(=O)N3CCOCC3)c(=O)oc2c1,0.895%
15,Cc1cc(CO)c(C)n1-c1ccccc1,4.32%
16,Cc1cc(C)n(-c2nc(C)nc(N)n2)n1,3.76%
17,CCCCOc1ccc(C(=O)OCC(=O)c2ccc(Cl)cc2)cc1,-3.48%
18,O=C(CN1Cc2ccccc2C1=O)NCCN1CCC(Cc2ccccc2)CC1,1.86%
19,CCCC(=O)Nc1ccc(C(=O)NCc2ccc(OC)cc2)cc1,5.15%
20,O=S(=O)(NCC1CCCO1)c1cc(Cl)ccc1Br (stereo not shown),3.05%
21,Cn1c(=O)n(C)c2cc(C3Nc4ccc5ccccc5c4C4=C3C(=O)CC(C)(C)C4)ccc21 (stereo not shown),11%
22,Cc1cccc(-c2noc(CN(C(=O)COc3cc(C)cc(C)c3C)C(C)C)n2)c1,-5.26%

row,Structure (SMILES),% Inhibition @ 10 uM
1,COc1ccc(C(=N)NOC(=O)c2ccco2)cc1OC,-8.87%
2,CCOc1cc(Br)c(C(C)NC(=O)c2ccco2)cc1OCC (stereo not shown),-3.32%
3,COc1ccc(CNC(=O)Cn2ccc3cc(S(=O)(=O)N4CCCC4)ccc32)cc1OC,3.3%
4,Cc1cc(Br)ccc1S(=O)(=O)Oc1cccc2cccnc12,0.0719%
5,CC(=O)Nc1ccc2c(c1)S(=O)(=O)c1cc(NC(C)=O)ccc1-2,1.64%
6,Cc1sc(NC(=O)C2CC3CCC2C3)c(C(N)=O)c1C (stereo not shown),6.54%
7,COc1ccc(CC2(C)OC(c3ccc(C(C)(C)C)cc3)=NN2C(C)=O)cc1 (stereo not shown),-0.85%
8,NC(=O)c1ccc(Cl)c(S(=O)(=O)N2CCCCC2)c1,-1.15%
9,Cc1cccc(NC(=O)CCC(=O)Nc2cccc(C)c2)c1,5.31%
10,CCOCc1cc(CN2CCCCC2)c(O)c2ncccc12,-4.07%
11,CCN(CC)CCCCN1c2ccccc2CCc2ccccc21,1.24%
12,CC1(C)CC(=O)C2=C(C1)N(CCc1ccccc1)C(=O)C2(NC(=O)c1ccccc1F)C(F)(F)F (stereo not shown),-7.35%
13,CCOC(=O)N1CCC(NC(=O)c2cc3sc(Cl)cc3n2C)CC1,-3.08%
14,CC(C)(C)OC(=O)NC(Cc1c[nH]c2ccccc12)C(=O)NCc1ccccc1 (stereo not shown),-3.05%
15,O=c1/c(=C/c2cn(-c3ccccc3)nc2-c2ccccc2)sc2nc(-c3ccncc3)nn12,-0.385%
16,O=C1NC(Nc2nc3ccccc3s2)(C(F)(F)F)C(=O)N1C1CCCCC1 (stereo not shown),0.221%
17,O=C(NC1CCCCC1)NS(=O)(=O)c1ccccc1Cl,2.17%
18,CCC(C)NC(=O)C1CCN(c2nc3ccccc3n3cccc23)CC1 (stereo not shown),0.372%
19,Cc1ccc(CNC(=O)C2CCN(c3nc4cc(Cl)ccc4s3)CC2)cc1,-5.92%
20,COc1ccc(C2NCCc3cc(OC)c(OC)cc32)cc1O (stereo not shown),-1.8%
21,O=C(c1ccc(COc2ccccc2Br)o1)N1CCCCCC1,-3.49%
22,COc1ccc(CCNC(=O)C2CCN(c3ncnc4c3nc3n4CCCCC3)CC2)cc1OC,2.59%

row,Structure (SMILES),% Inhibition @ 10 uM
1,COc1ccc(CC(=O)Nc2cc(C)ccc2O)cc1OC,0.472%
2,Cc1ccc(-n2ncc3c(NCc4ccccn4)ncnc32)cc1C,-3.02%
3,CCSC1=C(C#N)C(c2ccc(Cl)cc2)C(C(C)=O)=C(C)N1 (stereo not shown),-4.08%
4,Oc1ncnc2c1C1(CCCC1)Cc1ccccc1-2,0.51%
5,COCCNC(=O)Cn1c(=O)c2cccn2c2cccnc21,-7.87%
6,CCOc1ccc(C(=O)NCCc2ccc(OC)cc2)cc1,3.44%
7,COc1ccc(N2CC(C(=O)Nc3ccc(Br)cc3C)CC2=O)cc1 (stereo not shown),-1.02%
8,COc1ccc(-c2nnc(SCC(=O)N3CCC(C)CC3)o2)cc1OC,-0.999%
9,CCOC(=O)N1CCN(Cc2nc3c(c(=O)n(C)c(=O)n3C)n2Cc2ccccc2)CC1,-8.06%
10,O=C(c1cccc(F)c1)N1CCN(C2CCCCCC2)CC1,4.83%
11,CC(C)C(=O)NCCn1ccc2ccccc21,-1%
12,O=C(Nc1ccc(Cl)cc1Cl)c1nc2nc(-c3ccccc3)cc(C(F)(F)F)n2n1,0.215%
13,COc1ccc(NC(=O)CCSc2cc(C)c3ccccc3n2)cc1,-7.4%
14,Cc1ccnc(NC(=O)Cc2ccccc2Cl)c1,-5.81%
15,CC(=O)c1c(C)n(OCc2ccccc2)c2ccc3c(no[n+]3[O-])c12,3.04%
16,CCCCC(=O)N1CCN(CC/N=C(\C)C2=C(O)CC(C)(C)CC2=O)CC1,4.32%
17,Cc1ccc(S(=O)(=O)C2(C(=O)NCc3ccccc3Cl)CC2)cc1,-2.56%
18,CCOC(=O)N1CCN(C(=O)CCS(=O)(=O)c2ccc(Br)s2)CC1,0.723%
19,CCOc1cccc(C2CC(=O)Nc3cc(OC)c(OC)cc32)c1 (stereo not shown),-17%
20,CCN(CC)C(=O)c1ccc(NC(=O)Cn2cnc3c(=O)n(C)c(=O)n(C)c32)cc1,-3.69%
